Experimental data as given in PubChem BioAssay AID1508642 (National Center for Advancing Translational Sciences (NCATS), 2021).
Screen size: about 43,000 compounds; about 200 (0.47%) were called active. Inconclusive results, whose numbers are uncertain, are shown with a selection of clear calls. The call rests on the fitted dose curve; in most records, active means well fitted cell-killing curve with a large enough effect; inconclusive means small, poorly fitted or top-dose-only effect, or effect the other way; inactive means flat fitted curve, though single readings scatter. Potencies of inconclusive entries are doubtful fits and often do not repeat.

Test: Cell viability qHTS assay in S16 Pmp22-F2sN cells; further: nearly all actives have a fitted effect of over 65% in size
Conditions: S16 Pmp22-F2sN Schwann cells viability, CellTiter-Glo, 24 h; activity change, negative = cytotoxicity: at 57.5 µM (top of the series)
Summary of the method: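 Used to flag compounds lowering reporter output through toxicity, this quantitative HTS measures ATP-based CellTiter-Glo luminescence in S16 Pmp22-F2sN Schwann cells after 24 h compound exposure at 37C.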
On the % scale 0 is the no-effect control and ±100 the full control effect; potency means the concentration at half of the fitted maximal effect; tags describe the fitted curve by direction and shape.

Q: For `Cc1ccc(C)c(N2CCN(CCCNC(=O)c3cnn(-c4ccc(F)cc4)c3C3CCN(C(=O)OC(C)(C)C)CC3)CC2)c1`, which Potency is on record?
A: inconclusive: 39.8 µM [cytotoxic, single point]

Q: With `COc1ccc(-c2cnc(C)o2)cc1S(=O)(=O)Nc1ccc(OC(F)(F)F)cc1` as the compound, how does the Potency read?
A: inconclusive: 17.8 µM [cytotoxic, partial curve, poor fit]

Q: Which Potency does the source give for `CC(C)C(=O)Nc1nc2c(s1)CC(C(C)(C)C)CC2` (stereo not drawn) here?
A: inconclusive: 39.8 µM [cytotoxic, single point]

Q: For `Cc1ccccc1NC(=O)Cn1c(=O)n(CCc2ccccc2)c(=O)c2ccccc21`, which Potency is on record?
A: inconclusive: 14.1 µM [rising, partial curve]

Q: For `COc1ccc(CNC(=O)C(C)n2nc(C)c3c(C)n(-c4ccccc4)nc3c2=O)c(OC)c1` (stereo not drawn), which Potency is on record?
A: inconclusive: 22.4 µM [cytotoxic, partial curve, poor fit]

Q: With `COc1ccc(N2CCN(S(=O)(=O)c3ccc(-c4ccno4)cc3OC)CC2)cc1` as the compound, how does the Potency read?
A: inconclusive: 39.8 µM [cytotoxic, partial curve, poor fit]

Q: With `CCCCc1ccc(NC(=O)c2ccc3c(c2)CCN3S(=O)(=O)CC)cc1` as the compound, how does the “activity change, negative = cytotoxicity” value read?
A: inactive: -1.65%

Q: For `COc1ccc(C(=O)CC2(O)C(=O)N(Cc3cccc(C(F)(F)F)c3)c3ccccc32)cc1` (stereo not drawn), which Potency is on record?
A: inconclusive: 15.8 µM [cytotoxic, partial curve, poor fit]

Q: With `COc1cc2cc(CNc3ccccc3)c(=O)n(CC(=O)Nc3ccc(C)c(Cl)c3)c2cc1OC` as the compound, how does the Potency read?
A: inconclusive: 39.8 µM [cytotoxic, single point]

Q: Which “activity change, negative = cytotoxicity” value does the source give for `CCOC(=O)c1cnn(-c2ccc(C(=O)Nc3ccc(C(C)=O)cc3)cc2)c1N` here?
A: inactive: 0.618%

Q: For `CCOc1c(Br)cc(C2CC(=O)Nc3cc4c(cc32)OCO4)cc1OC` (stereo not drawn), which Potency is on record?
A: inconclusive: 2.82 µM [cytotoxic, full curve]

Q: With `COc1ccc(C2C=C(c3ccc(Cl)cc3)Nc3nc(-c4ccc(Cl)cc4)nn32)cc1` (stereo not drawn) as the compound, how does the Potency read?
A: inconclusive: 35.5 µM [cytotoxic, single point]

Q: Which “activity change, negative = cytotoxicity” value does the source give for `Cc1ccc(NC(=O)c2oc3ccc4c(c3c2C)C(=O)CC(C)(C)O4)c(C)c1` here?
A: inactive: 15.6%

Q: Which Potency does the source give for `CCOC(=O)Cn1c(=O)oc2cc(S(=O)(=O)N3CCN(c4cccc(C)c4)C(C)C3)ccc21` (stereo not drawn) here?
A: inconclusive: 3.16 µM [cytotoxic, partial curve, poor fit]

Q: Which Potency does the source give for `COc1ccccc1OCCn1c(C(C)Oc2ccccc2)nc2ccccc21` (stereo not drawn) here?
A: inconclusive: 20 µM [cytotoxic, single point]

Q: Which Potency does the source give for `Cc1ccc(-n2ncc(C(=O)N3CCN(Cc4ccccc4)CC3)c2C2CCN(C(=O)OC(C)(C)C)CC2)cc1` here?
A: inconclusive: 39.8 µM [cytotoxic, partial curve, poor fit]

Q: With `COc1ccc(NC(=O)C2=C(C)C(=O)OC23CCN(C(C)C)CC3)cc1Cl` as the compound, how does the Potency read?
A: inconclusive: 39.8 µM [cytotoxic, single point]

Q: With `Cc1ccccc1CN1C(=O)C(O)(CC(=O)c2ccccc2)c2cc(Cl)ccc21` (stereo not drawn) as the compound, how does the Potency read?
A: inconclusive: 31.6 µM [cytotoxic, single point]

Q: For `O=C(Cn1c(=O)n(-c2ccc(F)cc2)c(=O)c2sc3ccccc3c21)NC1CCCCC1`, which “activity change, negative = cytotoxicity” value is on record?
A: inactive: 16.4%

Q: For `CC(=O)c1ccc(C(=O)N(Cc2cccnc2)c2nc3c(Cl)cccc3s2)cc1`, which Potency is on record?
A: inconclusive: 39.8 µM [cytotoxic, single point]

Q: With `Cc1cccc(CS(=O)(=O)c2ncc(Cl)c(C(=O)Nc3nc4ccc(F)cc4s3)n2)c1` as the compound, how does the Potency read?
A: inconclusive: 31.6 µM [cytotoxic, single point]

Q: For `Cn1nnnc1SCCNCc1ccccc1OCc1ccc(Cl)cc1Cl`, which Potency is on record?
A: inconclusive: 39.8 µM [cytotoxic, single point]

Q: With `Cc1onc(-c2ccc(Br)cc2)c1C(=O)Nc1ccc(Br)cc1F` as the compound, how does the “activity change, negative = cytotoxicity” value read?
A: inactive: -15.7%

Q: Which Potency does the source give for `CCN1C(C(=O)c2ccccc2)=C(OC(=O)COc2ccccc2)c2ccccc2S1(=O)=O` here?
A: inconclusive: 39.8 µM [cytotoxic, partial curve, poor fit]

Q: For `Nc1c(-c2nc(-c3ccccc3)cs2)c2ccccn2c1C(=O)c1ccc2c(c1)OCO2`, which Potency is on record?
A: inconclusive: 12.6 µM [cytotoxic, partial curve, poor fit]

Q: For `CCOc1ccc(NC(=O)Cn2cc(C(=O)c3ccc(C)cc3)c(=O)c3cc4c(cc32)OCCO4)cc1`, which “activity change, negative = cytotoxicity” value is on record?
A: inactive: -0.757%

Q: For `O=C(Nc1nnc(SCc2cc(=O)c3ccccc3[nH]2)s1)c1ccccc1`, which Potency is on record?
A: inconclusive: 25.1 µM [cytotoxic, partial curve, poor fit]

Q: For `CCOC(=O)c1cc(-c2ccccc2)n(CCC(=O)Nc2ccc(C(F)(F)F)cc2)c1C`, which Potency is on record?
A: inconclusive: 35.5 µM [cytotoxic, single point]

Q: With `O=C(NCCn1cc(SCc2cccc(F)c2)c2ccccc21)c1cccc(C(F)(F)F)c1` as the compound, how does the “activity change, negative = cytotoxicity” value read?
A: inactive: 0.125%

Q: For `Cc1ccc2cc3cc(C(=O)N4CCN(c5cccc(C(F)(F)F)c5)CC4)sc3nc2c1`, which “activity change, negative = cytotoxicity” value is on record?
A: inactive: 10%

Q: With `CCOC(=O)CC(NC(=O)CCc1c(C)nc2c(-c3ccccc3)c(C)nn2c1C)c1ccc(C)cc1` (stereo not drawn) as the compound, how does the Potency read?
A: inconclusive: 28.2 µM [cytotoxic, partial curve, poor fit]

Q: For `O=C(Nc1ccc(F)cc1)N1CCN(c2ccc3nnc(-c4ccc(F)cc4)n3n2)CC1`, which Potency is on record?
A: inconclusive: 39.8 µM [cytotoxic, single point]

Q: Which “activity change, negative = cytotoxicity” value does the source give for `COCCCNC(=O)c1[nH]c2cc(OC)ccc2c1Sc1ccc(C)cc1` here?
A: inactive: 15%

Q: Which Potency does the source give for `O=c1c(N2CCN(c3cccc(C(F)(F)F)c3)CC2)csc2ccccc12` here?
A: inconclusive: 17.8 µM [rising, partial curve, poor fit]

Q: For `CCCCN(Cc1cccs1)S(=O)(=O)c1cc(-c2cc(C)no2)ccc1C`, which Potency is on record?
A: inconclusive: 39.8 µM [cytotoxic, single point]

Q: For `COc1ccc(NC(=O)c2ccc3c(SCC(=O)O)c4c(nc3c2)CCCC4)cc1OC`, which Potency is on record?
A: inconclusive: 0.0158 µM [cytotoxic, full curve, poor fit]

Q: For `O=C(Cc1ccccc1)N(Cc1cccnc1)c1nc2ccc(Cl)cc2s1`, which Potency is on record?
A: inconclusive: 28.2 µM [cytotoxic, single point]

Q: For `Cc1ccc(C)c(Nc2nn3c(=O)c4ccc(C(=O)NCCC5=CCCCC5)cc4nc3s2)c1`, which “activity change, negative = cytotoxicity” value is on record?
A: inactive: 2.23%
